Data from the supplement of paper PMC4967469.

Experiments:
Test in all cases: Viability of human cancer cell lines after 72 h of drug (GDSC screen)
[1] = compound: COc1cccc2cc(-c3nc([C@H]4CC[C@H](C(=O)O)CC4)n4ncnc(N)c34)[nH]c12 [OSI-027]; conditions: top dose 20 µM
Procedure: (§1)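 Human cancer cell lines in 384-well plates, medium with 10% serum, drug for 72 h over a 256-fold dose range (nine 2-fold or five 4-fold steps up to the top dose). Adherent lines were fixed and stained with the nucleic acid dye Syto60, suspension lines read with resazurin; signal relative to control wells, capped at 0 and 100%. One two-parameter sigmoid per drug and line, fitted in a mixed model over all curves with the slope shared within a line.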

[2] = compound: O=C(c1ccc(C(=O)N2CCC(N3CCCC3)CC2)c(Nc2ccccc2)c1)N1CCC(N2CCCC2)CC1 [UNC1215]; conditions: top dose 1 µM; top dose inferred
Procedure: as §1

[3] = compound: Cc1cnc(Nc2ccc(OCCN3CCCC3)cc2)nc1Nc1cccc(S(=O)(=O)NC(C)(C)C)c1 [TG101348]; conditions: top dose 10.24 µM
Procedure: as §1

[4] = compound: CN(C)Cc1cccc(N=C(c2ccccc2)c2c(O)[nH]c3cc(C(=O)N(C)C)ccc23)c1 [BIX02189]; conditions: top dose 20 µM; top dose inferred
Procedure: as §1

[5] = compound: Cc1cnc(Nc2ccc(F)cc2Cl)nc1-c1c[nH]c(C(=O)N[C@H](CO)c2cccc(Cl)c2)c1 [VX-11e]; conditions: top dose 5.12 µM; top dose inferred
Procedure: as §1

[6] = compound: CCc1cc(-c2n[nH]c(C)c2-c2ccc3c(c2)OCCO3)c(O)cc1O [CCT018159]; conditions: top dose 10 µM; top dose inferred
Procedure: as §1

[7] = compound: C=CC(=O)Nc1cc(-n2c(=O)ccc3cnc4ccc(-c5ccc(NS(C)(=O)=O)cc5)cc4c32)ccc1C [BMX-IN-1 (QL-XII-61)]; conditions: top dose 10 µM; top dose inferred
Procedure: as §1

[8] = compound: C=CCNC1=C2C[C@@H](C)C[C@H](OC)[C@H](O)[C@@H](C)/C=C(\C)[C@H](OC(N)=O)[C@@H](OC)/C=C\C=C(/C)C(=O)NC(=CC1=O)C2=O [17-AAG]; conditions: top dose 1 µM
Procedure: as §1

[9] = compound: CS(=O)(=O)c1ccc(C(=O)Nc2ccc(Cl)c(-c3ccccn3)c2)c(Cl)c1 [Vismodegib]; conditions: top dose 10 µM; top dose inferred
Procedure: as §1

[10] = compound: COc1cccc2c1C(=O)c1c(O)c3c(c(O)c1C2=O)C[C@@](O)(C(=O)CO)C[C@@H]3O[C@H]1C[C@H](N)[C@H](O)[C@H](C)O1 [Doxorubicin]; conditions: top dose 1.024 µM
Procedure: as §1

[11] = compound: COC(=O)CNC(=O)C(=O)OC [Dimethyloxalylglycine]; conditions: top dose 4000 µM; top dose inferred
Procedure: as §1

Row | Cell Line | AUC [1] | IC50 [1] [µM] | AUC [2] | IC50 [2] [nM] | AUC [3] | IC50 [3] [µM] | AUC [4] | IC50 [4] [µM] | AUC [5] | IC50 [5] [µM] | AUC [6] | IC50 [6] [µM] | AUC [7] | IC50 [7] [µM] | AUC [8] | IC50 [8] [nM] | AUC [9] | IC50 [9] [µM] | AUC [10] | AUC [11] | IC50 [11] [µM] | IC50 [10] [nM]
1 | U-2-OS (osteosarcoma, adherent) | 0.875 | > 20 | 0.984 | > 1000 | 0.941 | > 10.2 | 0.975 | > 20 | 0.981 | > 5.12 | 0.866 | > 10 | 0.874 | > 10 |  |  |  |  |  |  |  | 
2 | U-698-M (B-cell leukaemia, suspension) | 0.805 | 10.1 | 0.982 | > 1000 | 0.932 | > 10.2 | 0.761 | 7.13 | 0.922 | > 5.12 | 0.838 | 6.78 |  |  | 0.93 | > 1000 | 0.952 | > 10 | 0.623 | 0.256 | 50 | 
3 | WM793B (melanoma, adherent) | 0.46 | 0.958 | 0.98 | > 1000 | 0.787 | 4.96 | 0.954 | > 20 | 0.926 | > 5.12 | 0.895 | > 10 |  |  | 0.384 | 29 | 0.934 | > 10 | 0.269 | 0.324 | 76.3 | 13
4 | WSU-NHL (lymphoid neoplasm, suspension) | 0.739 | 5.42 | 0.99 | > 1000 | 0.838 | 5.77 | 0.917 | > 20 | 0.59 | 0.547 | 0.839 | 5.67 |  |  | 0.942 | > 1000 | 0.926 | > 10 | 0.654 | 0.839 | 2280 | 162
5 | YAPC (pancreas, adherent) | 0.921 | > 20 | 0.982 | > 1000 | 0.949 | > 10.2 | 0.966 | > 20 | 0.967 | > 5.12 | 0.943 | > 10 |  |  | 0.754 | 414 | 0.984 | > 10 | 0.92 | 0.848 | > 4000 | > 1020
6 | YKG-1 (glioma, adherent) | 0.394 | 0.639 | 0.985 | > 1000 | 0.885 | > 10.2 | 0.983 | > 20 | 0.968 | > 5.12 | 0.826 | 6.16 |  |  | 0.502 | 63.1 | 0.959 | > 10 | 0.353 | 0.639 | 609 | 24.8
7 | YT (lymphoid neoplasm, suspension) | 0.051 | < 0.0781 | 0.986 | > 1000 | 0.617 | 1.27 | 0.952 | > 20 | 0.886 | 4.19 | 0.957 | > 10 |  |  | 0.819 | 462 | 0.944 | > 10 | 0.881 | 0.142 | 24.9 | 792

A lower IC50 marks a more sensitive line; a fit beyond the top or the lowest dose is shown as a bound at that dose. For AUC the same curve is integrated over the 256-fold range of doses and scaled to a fraction: 1 means no effect, lower means more sensitive. For some of these results: A top dose marked as inferred was derived from the fitted curves, not read from the paper.
